The other results are listed elsewhere or left out.
Columns and labels:
HSkMC = human skeletal muscle cells; assay: cytotoxicity call (relative viability < 0.9); conditions: 10 µM
S. aureus RN4220 = assay: growth inhibition call (relative growth <= 0.2); conditions: 50 µM

Compound | cytotoxicity call (HSkMC) | growth inhibition call (S. aureus RN4220)
CCCN(C)C[C@H]1Oc2cc(C#Cc3ccccc3OC)ccc2S(=O)(=O)N([C@@H](C)CO)C[C@H]1C | inactive | inactive
C#CC1(O)CCC2C3CCC4=CCCCC4C3C(=C)CC21CC (stereo unspecified) | inactive | inactive
NCCCCCc1nnc(SCC(N)=O)o1 | inactive | inactive
C[n+]1cccc(C(=O)O)c1 | inactive | inactive
COc1cccc(S(=O)(=O)N2C[C@H](O)COC[C@@H]3O[C@H](CC(=O)N4CCN(C)CC4)CC[C@H]32)c1 | inactive | inactive
C[C@@H]1CN([C@@H](C)CO)C(=O)c2cc(NS(=O)(=O)c3ccc(Cl)cc3)ccc2O[C@@H](C)CCCCO[C@@H]1CN(C)C(=O)Nc1ccc(F)cc1 | inactive | inactive
C[C@H](CO)N1C[C@H](C)[C@H](CN(C)S(=O)(=O)c2ccc(F)cc2)Oc2ccc(NC(=O)c3ccncc3)cc2C1=O | inactive | inactive
O=C(CN1CCOCC1)N[C@H]1CC[C@H](CCn2cc(C3CCCC3)nn2)O[C@@H]1CO | inactive | inactive
C[C@@H]1CN([C@@H](C)CO)C(=O)c2cc(NC(=O)Cc3ccccc3)ccc2O[C@H]1CN(C)S(=O)(=O)c1ccccc1 | inactive | inactive
C[C@@H]1CN([C@H](C)CO)C(=O)Cc2cc(NC(=O)Cc3cn(C)c4ccccc34)ccc2O[C@@H]1CN(C)Cc1ccc(C(=O)Nc2ccccc2N)cc1 | inactive | inactive
CC(C)NC(=O)N(C)C[C@H]1Oc2ccc(NC(=O)Cc3ccccc3)cc2CC(=O)N([C@H](C)CO)C[C@@H]1C | inactive | inactive
Cc1cc(C(=O)Nc2ccc3c(c2)C(=O)N(C)[C@@H]2CC[C@@H](CC(=O)NCC(F)(F)F)O[C@H]2CO3)no1 | inactive | inactive
C[C@@H]1CCCCO[C@H](CN(C)C(=O)Nc2ccc(C(F)(F)F)cc2)[C@@H](C)CN([C@H](C)CO)C(=O)c2cc(NS(=O)(=O)c3cccs3)ccc2O1 | inactive | inactive
O=C(NC1Cc2ccccc2C1)[C@@H]1[C@@H](CO)[C@@H]2Cn3c(cccc3=O)[C@@H]2N1C(=O)c1cnccn1 | inactive | inactive
COc1ccc(S(=O)(=O)N(C)C[C@H]2Oc3c(NS(=O)(=O)c4ccccc4)cccc3C(=O)N([C@H](C)CO)C[C@H]2C)cc1 | inactive | inactive
COc1cccc(NC(=O)N2C[C@@H](O)COC[C@@H]3O[C@H](CC(=O)NCCCN4CCOCC4)CC[C@H]32)c1 | inactive | inactive
C[C@@H]1CN([C@H](C)CO)C(=O)c2cccc(NC(=O)c3ccncc3)c2O[C@H]1CN(C)Cc1ccncc1 | inactive | inactive
COc1ccc(S(=O)(=O)N(C)C[C@H]2Oc3ccc(NC(=O)NC(C)C)cc3CC(=O)N([C@@H](C)CO)C[C@H]2C)cc1 | inactive | inactive
C[C@@H]1CCCCO[C@H](CN(C)Cc2ccc(C(F)(F)F)cc2)[C@@H](C)CN([C@@H](C)CO)C(=O)c2cc(NS(=O)(=O)c3cccs3)ccc2O1 | inactive | inactive
COCCOC(=O)N1C(=O)[C@@]2(c3ccccc31)[C@H](C(=O)N1CCCCCCC1)[C@H]1C(=O)O[C@H](c3ccccc3)[C@H](c3ccccc3)N1[C@@H]2c1ccc(OCCO)cc1 | inactive | inactive

Compound | cytotoxicity call (HSkMC) | growth inhibition call (S. aureus RN4220)
Cc1ccc(S(=O)(=O)N(C)C[C@H]2OCCCC[C@@H](C)Oc3ccc(NC(=O)Nc4ccc(F)cc4)cc3C(=O)N([C@@H](C)CO)C[C@@H]2C)cc1 | active | inactive
O=C(C[C@H]1CC[C@@H]2[C@H](COC[C@@H](O)CN2S(=O)(=O)c2ccc(Cl)cc2)O1)NCCN1CCCC1 | inactive | inactive
COc1ccc(NC(=O)N2C[C@H](O)COC[C@@H]3O[C@H](CC(=O)NC4Cc5ccccc5C4)CC[C@H]32)cc1 | inactive | inactive
COc1ccc(NC(=O)N(C)C[C@H]2Oc3c(NS(=O)(=O)c4c(C)noc4C)cccc3C(=O)N([C@@H](C)CO)C[C@H]2C)cc1 | inactive | inactive
COc1cccc(NC(=O)N[C@@H]2C=C[C@H](CC(=O)N3CCN(C)CC3)O[C@H]2CO)c1 | inactive | inactive
O=C(C[C@H]1C[C@@H]2c3cc(NS(=O)(=O)c4ccc(F)cc4)ccc3O[C@@H]2[C@H](CO)O1)NCc1ccccc1 | inactive | inactive
O=C(C[C@@H]1CC[C@H]2[C@@H](COC[C@@H](O)CN2S(=O)(=O)c2cccc(F)c2)O1)NCc1ccncn1 | inactive | inactive
COCC(=O)N1CC[C@]2(CC1)CN(Cc1ccc3c(c1)OCO3)[C@@H](CO)c1c2c2ccc(cc2n1C)OC | inactive | inactive
C[C@H](CO)N1C[C@H](C)[C@H](CN(C)C(=O)Nc2cccc3ccccc23)Oc2ccc(NC(=O)Nc3ccccc3)cc2CC1=O | inactive | inactive
C[C@H]1CN([C@@H](C)CO)C(=O)Cc2cc(NC(=O)Cc3ccccc3)ccc2O[C@@H]1CN(C)Cc1ccc(C(F)(F)F)cc1 | active | inactive
Nc1ncn(C(=O)c2ccccc2)n1 | inactive | inactive
C[C@H]1CCCCO[C@H](CN(C)C(=O)CCC(F)(F)F)[C@@H](C)CN([C@@H](C)CO)C(=O)c2cc(NS(=O)(=O)c3ccccc3)ccc2O1 | inactive | inactive
O=C(N[C@@H](c1ccccc1)c1ccc2ccccc2n1)C1CCN(Cc2ccc(Oc3ccccc3)cc2)CC1 | inactive | inactive
C=CCOC[C@H]1NCCc2c1nnn2CC | inactive | inactive
C=C/C=C/[C@@H]1C(=C)CN([C@@H](Cc2ccccc2)C(=O)OC)[C@H]1[C@@H](O)CCn1cc(-c2ccc(C(=O)NO)s2)nn1 | inactive | inactive
COc1ccc(S(=O)(=O)Nc2ccc3c(c2)CC(=O)N([C@H](C)CO)C[C@H](C)[C@@H](CN(C)Cc2ccc(-c4ccccc4)cc2)O3)cc1 | inactive | inactive
C[C@H](CO)N1C[C@H](C)[C@@H](CN(C)Cc2ccc(-c3ccccc3)cc2)Oc2ccc(NC(=O)CCCCCC(=O)Nc3ccccc3N)cc2CC1=O | inactive | inactive
C[C@H]1CN([C@@H](C)CO)C(=O)c2cccc(NC(=O)c3nc4ccccc4s3)c2O[C@@H]1CN(C)CC1CCCCC1 | inactive | inactive
NCc1ccc(-c2nc3ccccc3o2)cc1 | inactive | inactive
C[C@@H]1CN([C@H](C)CO)C(=O)c2cc(NS(=O)(=O)c3ccc(F)cc3)ccc2O[C@H]1CN(C)Cc1ccc(Oc2ccccc2)cc1 | inactive | inactive

Compound | cytotoxicity call (HSkMC) | growth inhibition call (S. aureus RN4220)
C[C@H]1CN([C@@H](C)CO)C(=O)c2cccc(NC(=O)CCCCCC(=O)Nc3ccccc3N)c2O[C@@H]1CN(C)S(=O)(=O)c1cn(C)cn1 | inactive | inactive
COc1ccc(CN2C[C@H](C)[C@@H](OC)CN(C)C(=O)c3cc(NC(=O)c4nc5ccccc5s4)ccc3OC[C@@H]2C)cc1 | inactive | inactive
C[C@@H]1CN([C@H](C)CO)C(=O)c2cc(NC(=O)Cn3cnnn3)ccc2O[C@@H]1CN(C)C(=O)Nc1ccc(F)cc1 | inactive | inactive
C[C@@H]1CN([C@@H](C)CO)C(=O)c2cc(NC(=O)NC3CCCCC3)ccc2O[C@@H](C)CCCCO[C@@H]1CN(C)S(=O)(=O)c1cccs1 | inactive | inactive
CCS(=O)(=O)Nc1ccc2c(c1)C(=O)N(C)[C@@H]1CC[C@H](CC(=O)N3CCN(C)CC3)O[C@@H]1CO2 | inactive | inactive
C[C@@H]1CCCCO[C@H](CN(C)C(=O)Nc2ccccc2)[C@H](C)CN([C@H](C)CO)C(=O)c2cc(NC(=O)CCC(F)(F)F)ccc2O1 | inactive | inactive
C[C@@H]1CN([C@@H](C)CO)C(=O)c2cccc(NS(C)(=O)=O)c2O[C@@H]1CN(C)Cc1ccc(C(F)(F)F)cc1 | inactive | inactive
C[C@@H]1CCCCO[C@H](CN(C)S(=O)(=O)c2ccccc2)[C@@H](C)CN([C@H](C)CO)C(=O)c2cc(NC(=O)c3ccccc3)ccc2O1 | inactive | inactive
C[C@@H]1CCCCO[C@H](CN(C)C(=O)Nc2ccc(F)cc2)[C@H](C)CN([C@@H](C)CO)C(=O)c2cc(NC(=O)c3ccncc3)ccc2O1 | inactive | inactive
COc1ccc(S(=O)(=O)Nc2ccc3c(c2)C(=O)N([C@@H](C)CO)C[C@@H](C)[C@H](CN(C)Cc2ccc(-c4ccccc4)cc2)O3)cc1 | active | inactive
C[C@@H]1CCCCO[C@H](CN(C)C(=O)Cc2ccccc2)[C@H](C)CN([C@@H](C)CO)C(=O)c2cc(NC(=O)NC3CCCCC3)ccc2O1 | inactive | inactive
CCCNC(=O)N1C[C@H](O)COC[C@H]2O[C@@H](CC(=O)NCCCN3CCOCC3)CC[C@@H]21 | inactive | inactive
Cc1ccc(S(=O)(=O)N(C)C[C@H]2Oc3ccc(NS(C)(=O)=O)cc3C(=O)N([C@H](C)CO)C[C@@H]2C)cc1 | inactive | inactive
C[C@H](CO)N1C[C@H](C)[C@H](CN(C)Cc2ccc(-c3ccccc3)cc2)Oc2ccc(NC(=O)c3ccncc3)cc2CC1=O | inactive | inactive
Cc1noc(C)c1S(=O)(=O)N(C)C[C@H]1Oc2ccc(NS(=O)(=O)c3ccc(Cl)cc3)cc2CC(=O)N([C@@H](C)CO)C[C@@H]1C | inactive | inactive
C[C@@H]1CN([C@@H](C)CO)S(=O)(=O)c2ccc(Br)cc2O[C@H]1CN(C)C(=O)Nc1ccc2c(c1)OCO2 | inactive | inactive
C[C@H](CO)N1C[C@H](C)[C@H](CN(C)C(=O)Nc2ccc(C(F)(F)F)cc2)OCCCC[C@H](C)Oc2ccc(NC(=O)c3ccncc3)cc2C1=O | inactive | inactive
COc1cccc(-c2ccc3c(c2)O[C@H](CN(C)C(=O)C2CCOCC2)[C@@H](C)CN([C@H](C)CO)S3(=O)=O)c1 | inactive | inactive

Source: the antibiotic and cytotoxicity screens of Wong et al. (2023)
